Reference: article PMC8440562, “MAD2L2 dimerization and TRIP13 control shieldin activity in DNA repair” (Nature Communications, 2021)
No constants are given. Whether binding was seen depends on the method and setting. For some of these results: In cells and extracts the contact can be indirect. Some results given as binding are weak or reduced against the parent protein; the word gives no strength. For some of these results: Tags and fused reporters may be left off the sequences shown.

The chains behind the UniProt entries cited, without tags or fusion partners. Where a name states a change or a piece, a line headed by the entry shows the natural chain unless it says otherwise. A line that says so, or that is headed by a name, gives the form on record, which may keep a tag or linker.
UniProt Q9UI95: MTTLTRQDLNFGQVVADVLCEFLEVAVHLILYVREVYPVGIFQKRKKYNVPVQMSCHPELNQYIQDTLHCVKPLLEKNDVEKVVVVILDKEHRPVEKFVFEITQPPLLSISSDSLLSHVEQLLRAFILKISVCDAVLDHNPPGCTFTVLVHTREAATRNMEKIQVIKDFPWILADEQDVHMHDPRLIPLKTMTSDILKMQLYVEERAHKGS
MBP-tagged MAD2L2 (1xMut) (Q9UI95, form named): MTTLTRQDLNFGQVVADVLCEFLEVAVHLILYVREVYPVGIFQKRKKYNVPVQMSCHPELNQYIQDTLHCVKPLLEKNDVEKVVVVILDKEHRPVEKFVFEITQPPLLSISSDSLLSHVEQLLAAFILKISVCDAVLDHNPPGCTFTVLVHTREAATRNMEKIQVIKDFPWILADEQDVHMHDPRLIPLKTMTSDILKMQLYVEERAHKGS

Assays:
[1] = biological target: MBP-tagged MAD2L2 in complex with SHLD3 (human) (UniProt Q9UI95+Q6ZNX1); assay: pull-down; purified proteins mixed at 6 uM in 25 mM Tris pH 8, 0.3 M NaCl, 10% glycerol, 10 mM MgCl2, 0.5 mM TCEP, 0.01% Triton-X, 3 mM ATP; glutathione agarose or amylose beads; MAD2L2 in complex with full-length SHLD3; Coomassie SDS-PAGE; both purified
[2] = biological target: Flag-MAD2L2 (full-length wild-type MAD2L2, shRNA-resistant, single Flag-tag) (UniProt Q9UI95); assay: co-IP; 293T co-transfected with Flag-MAD2L2 (WT or mutant), V5-SHLD2 and GFP-SHLD3; anti-Flag M2 magnetic beads overnight at 4 C; lysis in 50 mM Tris-HCl pH 7.4, 150 mM NaCl, 1 mM EDTA, 1% Triton X-100; immunoblot
[3] = biological target: Flag-MAD2L2^K44A/R124A/A135D (UniProt Q9UI95); assay: as above
[4] = biological target: Flag-MAD2L2^R124A (UniProt Q9UI95); assay: as above
[5] = biological target: SHLD3-MAD2L2 complex (1xMut) (human) (UniProt Q9UI95+Q6ZNX1); assay: SEC; purified SHLD3-SHLD2^1-95-MAD2L2 complex (WT or 1xMut); Superdex-200; fractions on Coomassie-stained SDS-PAGE; both purified
[6] = biological target: SHLD3-MAD2L2 complex (WT) (human) (UniProt Q9UI95+Q6ZNX1); assay: as above
[7] = biological target: MBP-tagged MAD2L2 (1xMut) (human) (UniProt Q9UI95); assay: pull-down; purified proteins mixed at 6 uM in 25 mM Tris pH 8, 0.3 M NaCl, 10% glycerol, 10 mM MgCl2, 0.5 mM TCEP, 0.01% Triton-X, 3 mM ATP; glutathione agarose or amylose beads; MAD2L2 in complex with full-length SHLD3; Coomassie SDS-PAGE; both purified

B1: His6-EGFP-TRIP13^E253Q (enzyme, human, UniProt Q15645 1-432, looked up)
chain: MDEAVGDLKQALPCVAESPTVHVEVHQRGSSTAKKEDINLSVRKLLNRHNIVFGDYTWTEFDEPFLTRNVQSVSIIDTELKVKDSQPIDLSACTVALHIFQLNEDGPSSENLEEETENIIAANHWVLPAAEFHGLWDSLVYDVEVKSHLLDYVMTTLLFSDKNVNSNLITWNRVVLLHGPPGTGKTSLCKALAQKLTIRLSSRYRYGQLIEINSHSLFSKWFSESGKLVTKMFQKIQDLIDDKDALVFVLIDQVESLTAARNACRAGTEPSDAIRVVNAVLTQIDQIKRHSNVVILTTSNITEKIDVAFVDRADIKQYIGPPSAAAIFKIYLSCLEELMKCQIIYPRQQLLTLRELEMIGFIENNVSKLSLLLNDISRKSEGLSGRVLRKLPFLAHALYVQAPTVTIEGFLQALSLAVDKQFEERKKLAAYI
notes: TRIP13, human, with E253Q; printed mass of GFP-TRIP13 75.5 kDa; source: insect cells (Hi5, baculovirus, biGBac), purified
- binding [1]: no binding (tested: 6 uM)

B2: V5-SHLD2 (protein, UniProt Q86V20 1-835)
chain: MSGGSQVHIFWGAPIAPLKITVSEDTASLMSVADPWKKIQLLYSQHSLYLKDEKQHKNLENYKVPESIGSPDLSGHFLANCMNRHVHVKDDFVRSVSETQNIESQKIHSSRLSDITSSNMQICGFKSTVPHFTEEEKYQKLLSENKIRDEQPKHQPDICGKNFNTNLFQLGHKCAAVLDLVCSTEKINIGPEVVQRECVPTEYHEIQNQCLGLFSSNAVDKSRSEAAVRKVSDLKISTDTEFLSIITSSQVAFLAQKKDKRRSPVNKGNVNMETEPKASYGEIRIPEENSIQLDGFTEAYESGQNQAYSLELFSPVCPKTENSRIHINSDKGLEEHTGSQELFSSEDELPPNEIRIELCSSGILCSQLNTFHKSAIKRSCTSEDKVGQSEALSRVLQVAKKMKLISNGGDSAVEMDRRNVSEFKSIKKTSLIKNCDSKSQKYNCLVMVLSPCHVKEINIKFGPNSGSKVPLATVTVIDQSETKKKVFLWRTAAFWAFTVFLGDIILLTDVVIHEDQWIGETVLQSTFSSQLLNLGSYSSIQPEEYSSVVSEVVLQDLLAYVSSKHSYLRDLPPRQPQRVNSIDFVELEHLQPDVLVHAVLRVVDFTILTEAVYSYRGQKQKKVMLTVEQAQDQHYALVLWGPGAAWYPQLQRKKGVVLIKAQISELAFPITASQKIALNAHSSLKSIFSSLPNIVYTGCAKCGLELETDENRIYKQCFSCLPFTMKKIYYRPALMTAIDGRHDVCIRVESKLIEKILLNISADCLNRVIVPSSEITYGMVVADLFHSLLAVSAEPCVLKIQSLFVLDENSYPLQQDFSLLDFYPDIVKHGANARL
- binding [2]: binds
- binding [3]: no binding
- binding [4]: binds weakly

B3: SHLD2^1-95 (domain or fragment, UniProt Q86V20 1-95)
chain: MSGGSQVHIFWGAPIAPLKITVSEDTASLMSVADPWKKIQLLYSQHSLYLKDEKQHKNLENYKVPESIGSPDLSGHFLANCMNRHVHVKDDFVRS
- binding [5]: binds
- binding [6]: binds

B4: GFP-SHLD3 (protein, UniProt Q6ZNX1 1-250)
chain: MTTEVILHYRPCESDPTQLPKIAEKAIQDFPTRPLSRFIPWFPYDGSKLPLRPKRSPPVISEEAAEDVKQYLTISEHDAKSHSYDCTVDLLEFQPSLKKQHLTWSHTLKEQTNSGNLGKQSEKGKQHKRRSWSISLPSNNCTKNVSPLSKKLQDSLKALNLHSLYRARWTIEHTICNSQTLEDIWTKLNQIIRHNELPSCNATIQRHLGQIWVFCDIMYCEYVGSLLKGRLALTGKINLFVHKYGVIFSM
- binding [2]: binds
- binding [3]: binds
- binding [4]: binds

B5: SHLD3 (full-length, recombinant) (protein, UniProt Q6ZNX1 1-250)
chain: MTTEVILHYRPCESDPTQLPKIAEKAIQDFPTRPLSRFIPWFPYDGSKLPLRPKRSPPVISEEAAEDVKQYLTISEHDAKSHSYDCTVDLLEFQPSLKKQHLTWSHTLKEQTNSGNLGKQSEKGKQHKRRSWSISLPSNNCTKNVSPLSKKLQDSLKALNLHSLYRARWTIEHTICNSQTLEDIWTKLNQIIRHNELPSCNATIQRHLGQIWVFCDIMYCEYVGSLLKGRLALTGKINLFVHKYGVIFSM
- binding [7]: binds
